Test results: PubChem BioAssay AID1468 (National Center for Advancing Translational Sciences (NCATS), 2008)
Where “and” joins values, the source holds several entries; their conditions need not be identical. Equal values may be shown once. The campaign covered roughly 280,000 compounds. About 1,100 (0.39%) were called active. Inconclusive means that the source gave no clear call. Such entries were picked first, then a sample of the others. Calls follow the shape of the dose curve; as a rule, active = well fitted inhibition curve with a large enough effect; inconclusive = small, poorly fitted or top-dose-only effect, or effect the other way; inactive = flat fitted curve, though single readings scatter. Where the call is inconclusive, the potency comes from a doubtful curve fit.

Biological target: Microtubule-associated protein tau (Homo sapiens) (UniProt P10636)
Sequence of UniProt P10636 (P10636 whole entry, looked up): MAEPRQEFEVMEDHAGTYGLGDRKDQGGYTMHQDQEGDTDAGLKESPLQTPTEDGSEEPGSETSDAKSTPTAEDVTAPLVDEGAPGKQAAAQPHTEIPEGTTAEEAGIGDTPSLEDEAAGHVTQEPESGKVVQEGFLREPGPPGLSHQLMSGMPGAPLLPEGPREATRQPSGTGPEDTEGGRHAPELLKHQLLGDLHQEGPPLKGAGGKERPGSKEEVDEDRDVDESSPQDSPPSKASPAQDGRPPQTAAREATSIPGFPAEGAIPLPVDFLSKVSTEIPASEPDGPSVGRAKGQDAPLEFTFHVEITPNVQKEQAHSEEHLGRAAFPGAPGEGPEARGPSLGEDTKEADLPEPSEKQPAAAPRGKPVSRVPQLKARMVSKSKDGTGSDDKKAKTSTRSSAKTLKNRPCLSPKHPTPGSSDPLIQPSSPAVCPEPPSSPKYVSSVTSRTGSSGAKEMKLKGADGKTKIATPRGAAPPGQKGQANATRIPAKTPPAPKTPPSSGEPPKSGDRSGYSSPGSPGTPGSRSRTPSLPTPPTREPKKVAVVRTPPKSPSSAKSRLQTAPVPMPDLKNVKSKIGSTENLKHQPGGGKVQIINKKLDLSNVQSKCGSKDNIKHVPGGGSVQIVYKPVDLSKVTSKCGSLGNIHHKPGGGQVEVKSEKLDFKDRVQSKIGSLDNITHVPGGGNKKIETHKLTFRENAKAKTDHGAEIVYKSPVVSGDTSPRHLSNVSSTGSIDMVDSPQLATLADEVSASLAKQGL
Test: qHTS for Inhibitors of Tau Fibril Formation, Fluorescence Polarization; also: nearly all actives have a fitted effect of over 55% in size
Conditions: K18 P301L tau heparin fibrillization, Alexa594 FP, 6 h; series mostly up to 57.7 µM; activity, negative = inhibition: at the top concentration
Method in brief: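 FP of Alexa 594-tau after heparin (20 uM) induction. Substrate: human K18 P301L, 15 uM unlabeled, 0.24 uM labeled. Buffer 100 mM sodium acetate pH 7. 6 hr, 37 C.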
% is scaled to controls: 0 for no effect and ±100 for the full control effect; potency is read from the fitted curve at half-maximal effect; tags tell the direction and shape of the fitted curve.

**Q.** `C=Cc1ccc(CN2C(=O)N(c3ccc(CC)cc3)S(=O)(=O)c3ccccc32)cc1` was tested. Which Potency did it give?
**A.** inconclusive: 0.562 µM [inhibitor, full curve, poor fit]

**Q.** With `Cc1ccccc1NC(=O)Nc1ccc(C(F)(F)F)cc1` as the compound, how does the Potency read?
**A.** inconclusive: 39.8 µM [inhibitor, single point]

**Q.** With `O=C(CSc1ncc2c(n1)-c1ccccc1N(Cc1ccccc1)S2(=O)=O)Nc1ccccc1` as the compound, how does the Potency read?
**A.** inconclusive: 7.94 µM [inhibitor, full curve]

**Q.** Which “activity, negative = inhibition” value does the source give for `CCOC(=O)c1ccc(NS(C)(=O)=O)cc1` here?
**A.** inactive: 2.33%

**Q.** How did the “activity, negative = inhibition” value turn out when `COc1ccc(N2C(=O)CC(Sc3n[nH]c(-c4ccccc4)n3)C2=O)cc1` (stereo unspecified) was run?
**A.** inactive: 10.3%

**Q.** For `O=C(COc1ccccc1)NC(=S)Nc1cccc(NC(=O)c2ccccc2Cl)c1`, which Potency is on record?
**A.** inconclusive: 3.55 µM [inhibitor, full curve, poor fit]

**Q.** How did the “activity, negative = inhibition” value turn out when `COC(=O)c1ccc(OCC2c3cc(OC)c(OC)cc3CCN2C(=O)C(C)C)cc1` (stereo unspecified) was run?
**A.** inactive: 7.48%

**Q.** `CCOc1ccc(C2NC(=O)C(C#N)=C(S)N2c2ccc(OC)cc2)cc1OC` (stereo unspecified) was tested. Which Potency did it give?
**A.** inconclusive: 31.6 µM [inhibitor, partial curve]

**Q.** `CCOC(=O)C1=C(C)NC(C)=C(C(=O)OCC)C1c1cc2ccc(C)cc2[nH]c1=O` was tested. Which “activity, negative = inhibition” value did it give?
**A.** inactive: 0.776%

**Q.** How did the Potency turn out when `CC(=C\c1ccco1)/C=C1/SC(=S)N(CC(=O)O)C1=O` was run?
**A.** inconclusive: 22.4 µM [inhibitor, partial curve]

**Q.** How did the Potency turn out when `O=C(/C=C/c1ccccc1)Nc1cccc(S(=O)(=O)Nc2ccccc2F)c1` was run?
**A.** inconclusive: 31.6 µM [inhibitor, partial curve]

**Q.** `COc1cc(/C=N/n2nnnc2N)ccc1OCc1c(C)no[n+]1[O-]` was tested. Which Potency did it give?
**A.** inconclusive: 1 µM [inhibitor, partial curve]

**Q.** How did the Potency turn out when `CCc1nn(CCCC(=O)N2CCc3ccccc3C2)c(=O)c2cc3occc3n12` was run?
**A.** inconclusive: 39.8 µM [inhibitor, single point]

**Q.** `COC(=O)c1cnc(NCc2ccc(F)cc2)c2ccccc12` was tested. Which Potency did it give?
**A.** inconclusive: 20 µM [inhibitor, partial curve]

**Q.** Which Potency does the source give for `Cc1ccc(-n2ncc3c(NCCCn4ccnc4)ncnc32)cc1Cl` here?
**A.** inconclusive: 25.1 µM [inhibitor, partial curve]

**Q.** Which Potency does the source give for `CN(CC(=O)O)S(=O)(=O)c1cccs1` here?
**A.** inconclusive: 8.91 µM [inhibitor, single point]

**Q.** Which Potency does the source give for `CC(=O)n1c(C=Nc2ccccc2)c(O)c2ccccc21` here?
**A.** inconclusive: 22.4 µM [inhibitor, single point]

**Q.** How did the Potency turn out when `COc1cccc(C2CC(c3cccs3)=NN2C(=O)CSc2nc3ccccc3s2)c1OC` (stereo unspecified) was run?
**A.** inconclusive: 3.55 µM [inhibitor, partial curve]

**Q.** `COC(=O)C1=C(C(=O)OC)[C@@H]2N(C)c3ccccc3[C@@]23C[C@@H](C(=O)OC)N(S(=O)(=O)c2ccc(C(F)(F)F)cc2)C3=N1` was tested. Which activity, negative = inhibition did it give?
**A.** inactive: 3.35% [at 11.6 µM]

**Q.** `CCn1cc(S(=O)(=O)c2cccc(Cl)c2)c(=O)c2cc(F)c(N3CCN(c4ccccc4)CC3)cc21` was tested. Which “activity, negative = inhibition” value did it give?
**A.** inactive: 12%

**Q.** `O=[N+]([O-])c1cccc(-c2nc(Oc3ccc(Cl)cc3)c3ccccc3n2)c1` was tested. Which Potency did it give?
**A.** inconclusive: 39.8 µM [inhibitor, single point]

**Q.** Which Potency does the source give for `Cc1nn(-c2ccc([N+](=O)[O-])cc2)c2c1C(c1ccc(OC(F)F)cc1)N1C(=N2)C(=O)Nc2ccccc21` (stereo unspecified) here?
**A.** inconclusive: 44.7 µM [inhibitor, single point]

**Q.** How did the Potency turn out when `CN1c2ccsc2/C(=N/Nc2ccc(F)cc2)CS1(=O)=O` was run?
**A.** inconclusive: 22.4 µM [activator, partial curve]

**Q.** `O=C1/C(=C/C=C/c2ccco2)SC(=S)N1c1ccc(O)cc1` was tested. Which Potency did it give?
**A.** inconclusive: 17.8 µM [inhibitor, partial curve]

**Q.** Which Potency does the source give for `Cc1cc2c(c(=O)o1)[C@@H](O)[C@H]1O[C@@H]1C2=O` here?
**A.** inconclusive: 3.55 µM [inhibitor, partial curve, poor fit]

**Q.** How did the Potency turn out when `Cc1ccc(-n2nc(C)c(/C=N/NC(=O)c3cccs3)c2Cl)cc1` was run?
**A.** inconclusive: 3.55 µM [inhibitor, single point]

**Q.** How did the Potency turn out when `C=C(C(=O)OCC)C(=O)c1ccccc1` was run?
**A.** inconclusive: 8.91 µM [inhibitor, single point]

**Q.** Which Potency does the source give for `CC(=NCCc1c(C)[nH]c2ccc(OC(F)(F)F)cc12)C1=C(O)CC(c2ccccc2)CC1=O` (stereo unspecified) here?
**A.** inconclusive: 1.12 µM [inhibitor, full curve, poor fit]

**Q.** How did the Potency turn out when `Cc1c(C(=O)Nc2nccs2)sc2nc(-c3cccs3)cc(C(F)(F)F)c12` was run?
**A.** inconclusive: 25.1 µM [inhibitor, partial curve]

**Q.** Which “activity, negative = inhibition” value does the source give for `COc1cc(Cl)c(C)cc1NC(=O)CNC(C)c1ccccc1OC` (stereo unspecified) here?
**A.** inactive: 2.41%

**Q.** How did the “activity, negative = inhibition” value turn out when `CCc1nn(Cc2cc(C)ccc2C)c(=O)c2cc3cc(C)ccc3n12` was run?
**A.** inactive: -6%

**Q.** With `CCCCS/C(N)=N/N=C/c1ccccc1O` as the compound, how does the “activity, negative = inhibition” value read?
**A.** inactive: 2.91%

**Q.** For `COC(=O)c1sc(NC(=O)/C=C/c2ccccc2Cl)nc1C`, which Potency is on record?
**A.** inconclusive: 14.1 µM [inhibitor, partial curve]

**Q.** How did the Potency turn out when `COc1ccc(NC(=O)CSc2cc(C)nc3c(-c4ccccc4)cnn23)cc1` was run?
**A.** inconclusive: 25.1 µM [inhibitor, single point]

**Q.** For `COc1ccc(-n2nnc3c(SCC(=O)c4ccccc4)ncnc32)cc1`, which Potency is on record?
**A.** inconclusive: 20 µM [inhibitor, partial curve]

**Q.** With `CCCSc1nc2sc3c(c2c(=O)n1Cc1ccccc1)CC(C)(CC)OC3` (stereo unspecified) as the compound, how does the “activity, negative = inhibition” value read?
**A.** inactive: 0.905%

**Q.** With `Oc1ccc(F)cc1-c1cc(-c2ccc3c(c2)OCCO3)n[nH]1` as the compound, how does the Potency read?
**A.** inconclusive: 22.4 µM [inhibitor, partial curve]

**Q.** For `CN(C)c1ccc(-c2nc3ccccn3c2/N=C/c2ccc(Br)cc2)cc1`, which Potency is on record?
**A.** inconclusive: 28.2 µM [inhibitor, single point]

**Q.** `S=C(Nc1ccccn1)NC1CCCCC1` was tested. Which Potency did it give?
**A.** inconclusive: 0.794 µM [inhibitor, single point]

**Q.** `COc1cccc(C2CC(=O)N3CN(c4cccc(Cl)c4C)CSC3=C2C#N)c1OC` (stereo unspecified) was tested. Which Potency did it give?
**A.** active: 31.6 µM

**Q.** With `COc1cccc(C(=O)Nc2ccc(Cl)c(C(F)(F)F)c2)c1` as the compound, how does the Potency read?
**A.** inconclusive: 28.2 µM [inhibitor, partial curve]

**Q.** How did the “activity, negative = inhibition” value turn out when `Cc1ccccc1-c1nc(-c2cccnc2)no1` was run?
**A.** inactive: 1.07%

**Q.** For `CCc1ccc(-n2c(=O)c3cccnc3n2CC(=O)Nc2cc(F)ccc2F)cc1`, which Potency is on record?
**A.** inconclusive: 3.16 µM [inhibitor, partial curve]

**Q.** How did the Potency turn out when `Cn1c(=O)[nH]c(=O)c2c1nc(N1CCCCC1)n2C/C=N/NC(=O)c1cc(Br)ccc1O` was run?
**A.** inconclusive: 0.0891 µM [activator, full curve, poor fit]

**Q.** `COc1ccc(Cc2nnc(N)s2)cc1OC` was tested. Which “activity, negative = inhibition” value did it give?
**A.** inactive: -10%

**Q.** How did the Potency turn out when `Cc1cc2nc3c(nc2cc1C)C(O)=C3O` was run?
**A.** inconclusive: 22.4 µM [inhibitor, partial curve]

**Q.** Which Potency does the source give for `COc1ccc([N+](=O)[O-])cc1/C=N/NC(=O)/C(=C\c1cccs1)NC(=O)c1ccccc1` here?
**A.** inconclusive: 28.2 µM [activator, single point]

**Q.** How did the Potency turn out when `COc1cccc(OCc2nnc(SCC(=O)N3c4ccccc4Sc4ccc(Cl)cc43)o2)c1` was run?
**A.** inconclusive: 39.8 µM [inhibitor, single point]

**Q.** How did the Potency turn out when `Cc1cc(NC(=O)c2cccc(S(=O)(=O)N(C)C)c2)n(-c2ccccn2)n1` was run?
**A.** inconclusive: 3.16 µM [inhibitor, full curve, poor fit]

**Q.** `CC(C)C[C@H](NC(=O)c1[nH]cnc1C(=O)N[C@@H](C)c1ccccc1)C(=O)OCc1ccccc1` was tested. Which Potency did it give?
**A.** inconclusive: 3.16 µM [inhibitor, full curve]

**Q.** How did the “activity, negative = inhibition” value turn out when `CSc1ccccc1C(=O)NCCSc1ccccc1` was run?
**A.** inactive: -11.8%

**Q.** `Nc1cc(N)nc(CS)n1` was tested. Which Potency did it give?
**A.** inconclusive: 10 µM [inhibitor, single point]

**Q.** For `Cc1ccc(NC(=O)c2cc(S(=O)(=O)N3CCc4ccccc43)ccc2F)cc1Cl`, which Potency is on record?
**A.** inconclusive: 15.8 µM [inhibitor, partial curve, poor fit]

**Q.** For `COC(=O)c1sc(NC(=O)c2cc(-c3ccccc3)nc3ccccc23)c(C#N)c1C`, which Potency is on record?
**A.** inconclusive: 35.5 µM [inhibitor, single point]

**Q.** `C=CCc1cccc(/C=N/NC(=O)c2ccccc2Br)c1O` was tested. Which Potency did it give?
**A.** inconclusive: 20 µM [inhibitor, single point]

**Q.** Which Potency does the source give for `NC(=O)c1ccsc1NC(=O)c1ccc2c(c1)CCCC2` here?
**A.** inconclusive: 39.8 µM [inhibitor, single point]

**Q.** Which Potency does the source give for `CC(=O)c1c(C)[nH]c(C(=O)Nc2cccc(S(=O)(=O)N3CCOCC3)c2)c1C` here?
**A.** inconclusive: 39.8 µM [inhibitor, single point]

**Q.** How did the “activity, negative = inhibition” value turn out when `CCOC(=O)c1ccccc1NC(=O)CSc1nccn1C` was run?
**A.** inactive: -0.833%

**Q.** `O=C(CSc1nnc(NC(=O)Nc2ccccc2)s1)Nc1cccc(F)c1` was tested. Which Potency did it give?
**A.** inconclusive: 28.2 µM [inhibitor, partial curve]

**Q.** `COc1ccc(-c2oc(NC(C)=O)c(C#N)c2-c2ccc(OC)cc2)cc1` was tested. Which Potency did it give?
**A.** inconclusive: 4.47 µM [activator, partial curve]

**Q.** For `Cn1cc(S(=O)(=O)c2cccc(Cl)c2)c(=O)c2cc(F)c(N3CCN(c4ccccc4)CC3)cc21`, which “activity, negative = inhibition” value is on record?
**A.** inactive: 1.46%

**Q.** `COc1cc(C2c3c(-c4cc(C)ccc4O)n[nH]c3C(=O)N2CCCO)ccc1OCCC(C)C` (stereo unspecified) was tested. Which “activity, negative = inhibition” value did it give?
**A.** inactive: 13.3%

**Q.** With `Fc1ccc(-c2csc3ncnc(Nc4ccc(N5CCOCC5)cc4)c23)cc1` as the compound, how does the Potency read?
**A.** inconclusive: 5.01 µM [activator, partial curve]

**Q.** With `CCOC(=O)c1sc2nc(N3CCOCC3)c3c(c2c1N)CCC3` as the compound, how does the “activity, negative = inhibition” value read?
**A.** inactive: 17.2%

**Q.** For `CCc1ccc2nc(NC(=O)CCCc3cccs3)sc2c1`, which Potency is on record?
**A.** inconclusive: 4.47 µM [inhibitor, single point]

**Q.** How did the Potency turn out when `COc1c(C=O)c(O)cc2c1C(=O)c1ccccc1C2=O` was run?
**A.** inconclusive: 39.8 µM [inhibitor, single point] and inconclusive: 7.08 µM [inhibitor, partial curve]
